Assay results taken from the supplement of paper PMC10369915.
This is one part of the list. No stated cut-off is given here; in the data, active = 3.2 or more and inactive = the rest. The signal is at background level for most entries.

What was measured:
Test in all cases: enrichment score (SH2-bound / input frequency) (ratio); bacterial display of known human phosphotyrosine sites (pTyr-Var adds point mutants) read by sequencing; higher = stronger binding; tyrosines were phosphorylated by kinases first
Conditions in all cases: peptide library: pTyr-Var
SHP2 C-SH2 domain E139D = biological target: SHP2 C-SH2 domain E139D
[1] = biological target: SHP2 C-SH2 domain wild-type
SHP2 N-SH2 domain L43F = biological target: SHP2 N-SH2 domain L43F
SHP2 N-SH2 domain T42A = biological target: SHP2 N-SH2 domain T42A
SHP2 N-SH2 domain T52S = biological target: SHP2 N-SH2 domain T52S
[2] = biological target: SHP2 N-SH2 domain wild-type
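Further: displayed peptides selected on beads carrying the immobilized SH2 domain, with library peptides lacking any tyrosine serving as negative controls.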

Row | Binder | enrichment score (SHP2 C-SH2 domain E139D) | enrichment score [1] | enrichment score (SHP2 N-SH2 domain L43F) | enrichment score (SHP2 N-SH2 domain T42A) | enrichment score (SHP2 N-SH2 domain T52S) | enrichment score [2]
1 | LLTALYFISRG [KCNH2_Y780] | inactive: 3.01 | inactive: 2.89 | inactive: 2.92 | inactive: 2.35 | inactive: 2.54 | inactive: 2.92
2 | VWALTYCDLHK [KCNH2_Y827_R823W] | inactive: 1.58 | inactive: 1.51 | inactive: 1.1 | inactive: 1.16 | inactive: 1.02 | inactive: 1.31
3 | WAFNLYDINKD [KCNIP3_Y174] | inactive: 1.18 | inactive: 1.15 | inactive: 1.12 | inactive: 1.5 | inactive: 1 | inactive: 1.06
4 | WSFNLYDINKD [KCNIP3_Y174_A170S] | inactive: 1.17 | inactive: 0.971 | inactive: 0.991 | inactive: 1.18 | inactive: 1.03 | inactive: 1.14
5 | WAFNLYDINKY [KCNIP3_Y174_D179Y] | inactive: 1.28 | inactive: 1.25 | inactive: 1.32 | inactive: 1.16 | inactive: 1.16 | inactive: 1.14
6 | WAFNLYDINKF [KCNIP3_Y174_D179Y_YF] | inactive: 1.42 | inactive: 1.22 | inactive: 1.71 | inactive: 1.65 | inactive: 1.27 | inactive: 1.02
7 | LEQRPYRRESE [KCNJ12_Y427] | inactive: 0.308 | inactive: 0.331 | inactive: 0.254 | inactive: 0.173 | inactive: 0.18 | inactive: 0.126
8 | LEQRPYRRGSE [KCNJ12_Y427_E430G] | inactive: 0.281 | inactive: 0.26 | inactive: 0.382 | inactive: 0.25 | inactive: 0.298 | inactive: 0.292
9 | SETSRYLSDLF [KCNJ3_Y67] | inactive: 1.12 | inactive: 1.08 | inactive: 0.999 | inactive: 1.36 | inactive: 1.01 | inactive: 1.03
10 | VGSIEYLKREW [KCNMA1_Y885] | inactive: 0.797 | inactive: 0.928 | inactive: 0.72 | inactive: 0.927 | inactive: 0.896 | inactive: 0.767
11 | VGSIKYLKREW [KCNMA1_Y885_E884K] | inactive: 1.07 | inactive: 1.01 | inactive: 1.19 | inactive: 1.05 | inactive: 0.982 | inactive: 1.05
12 | NQNIGYKLGHR [KCNN3_Y268] | inactive: 0.772 | inactive: 0.781 | inactive: 0.812 | inactive: 0.644 | inactive: 0.838 | inactive: 0.981
13 | NQNIGYELGHR [KCNN3_Y268_K269E] | inactive: 0.696 | inactive: 0.741 | inactive: 0.682 | inactive: 0.692 | inactive: 0.859 | inactive: 0.796
14 | GCRSKYVRLWG [KCNQ1_Y184_G186R] | inactive: 1.28 | inactive: 1.39 | inactive: 1.98 | active: 3.38 | inactive: 2.24 | inactive: 1.12
15 | GCRSKYVGLWR [KCNQ1_Y184_G189R] | inactive: 0.847 | inactive: 0.898 | inactive: 0.686 | inactive: 0.756 | inactive: 0.648 | inactive: 0.678
16 | GCRSKHVGLWG [KCNQ1_Y184_Y184H] | inactive: 1.27 | inactive: 1.58 | inactive: 1.4 | inactive: 1.22 | inactive: 1.42 | inactive: 1.34
17 | LITTLYIGFLG [KCNQ1_Y267] | inactive: 2.89 | active: 3.51 | active: 3.43 | inactive: 2.66 | active: 3.22 | active: 4.11
18 | LITTLYISFLG [KCNQ1_Y267_G269S] | active: 3.32 | active: 3.55 | inactive: 2.39 | inactive: 2.64 | inactive: 2.42 | inactive: 2.96
19 | LITTLYIGFLD [KCNQ1_Y267_G272D] | inactive: 2.22 | inactive: 2.84 | inactive: 2.57 | inactive: 1.96 | inactive: 2.61 | inactive: 3.05
